This note sets out measurements from patent US20180153968A1 (CSL BEHRING LENGNAU, published 2018).

Test [1] deals with T1, rVIII-SingleChain (recombinant single chain Factor VIII) (Homo sapiens (Human), UniProt P00451 20-2351).
T1 construct: Molar mass used for the fit: 170 kDa; also called rVIII-SC; FVIII
T1 sequence: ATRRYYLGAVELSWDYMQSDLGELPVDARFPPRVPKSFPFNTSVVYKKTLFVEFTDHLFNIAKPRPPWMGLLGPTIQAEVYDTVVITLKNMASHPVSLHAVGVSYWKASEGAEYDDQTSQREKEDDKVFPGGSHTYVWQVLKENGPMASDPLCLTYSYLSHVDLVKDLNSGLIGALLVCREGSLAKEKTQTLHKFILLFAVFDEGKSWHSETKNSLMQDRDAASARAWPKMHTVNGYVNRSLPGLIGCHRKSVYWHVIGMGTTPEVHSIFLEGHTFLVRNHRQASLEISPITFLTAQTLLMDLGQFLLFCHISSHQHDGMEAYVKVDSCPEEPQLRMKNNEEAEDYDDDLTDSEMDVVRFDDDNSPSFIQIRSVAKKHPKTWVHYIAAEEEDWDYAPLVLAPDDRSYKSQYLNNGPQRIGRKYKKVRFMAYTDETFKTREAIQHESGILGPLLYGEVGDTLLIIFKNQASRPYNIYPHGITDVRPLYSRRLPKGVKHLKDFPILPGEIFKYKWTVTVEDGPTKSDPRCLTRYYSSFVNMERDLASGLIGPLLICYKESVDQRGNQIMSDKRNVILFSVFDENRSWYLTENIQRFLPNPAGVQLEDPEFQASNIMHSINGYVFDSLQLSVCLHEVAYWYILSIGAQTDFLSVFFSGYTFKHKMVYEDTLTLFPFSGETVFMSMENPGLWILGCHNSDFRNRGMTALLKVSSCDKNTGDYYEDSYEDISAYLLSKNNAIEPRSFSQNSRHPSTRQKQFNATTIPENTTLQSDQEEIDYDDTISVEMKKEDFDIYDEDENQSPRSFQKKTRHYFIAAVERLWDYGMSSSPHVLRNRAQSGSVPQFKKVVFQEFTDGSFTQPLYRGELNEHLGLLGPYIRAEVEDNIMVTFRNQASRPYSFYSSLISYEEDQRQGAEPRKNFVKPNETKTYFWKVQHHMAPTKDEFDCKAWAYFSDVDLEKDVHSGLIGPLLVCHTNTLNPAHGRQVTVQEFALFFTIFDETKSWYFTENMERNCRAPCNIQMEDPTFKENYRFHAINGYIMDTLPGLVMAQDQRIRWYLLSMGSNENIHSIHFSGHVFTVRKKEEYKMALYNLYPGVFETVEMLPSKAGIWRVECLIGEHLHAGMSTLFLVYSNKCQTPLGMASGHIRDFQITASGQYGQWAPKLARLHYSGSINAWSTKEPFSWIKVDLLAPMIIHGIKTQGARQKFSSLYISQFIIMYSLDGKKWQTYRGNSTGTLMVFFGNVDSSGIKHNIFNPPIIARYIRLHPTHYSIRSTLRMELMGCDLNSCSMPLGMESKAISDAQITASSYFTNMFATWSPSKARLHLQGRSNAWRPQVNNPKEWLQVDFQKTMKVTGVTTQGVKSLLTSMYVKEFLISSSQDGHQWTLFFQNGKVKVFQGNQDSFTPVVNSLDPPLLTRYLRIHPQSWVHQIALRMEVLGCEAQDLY
In words: SPR (Biacore T200), D′D3-FP captured by anti-albumin antibody, rVIII-SingleChain as analyte, single cycle kinetics, 25 C. The protocol: (§1) Dimeric and monomeric D′D3-FP proteins, respectively, were immobilized to the covalently coupled anti-albumin antibody by a flow of the D′D3-FP proteins (5 μg/mL) over the chip for 3 min (flow rate of 10 μL/min).
(§2) To create binding curves for FVIII, each D′D3-FP protein preparation was diluted in running buffer (HBS-P+: 0.1 M HEPES, 1.5 M NaCl and 0.5% v/v Surfactant P20, pH 7.4; product code BR100671, GE Healthcare) to concentrations of 0.25 nM, 0.5 nM, 1 nM, 3 nM and 4 nM. By performing a single cycle kinetic, samples with ascending concentrations of each dilution were flown over the chip for 2 min (flow rate 30 μL/min.), followed by a dissociation time of 10 min. with running buffer HBS-P+. All measurements were performed twice. The temperature for the measuring procedure was adjusted to +25° C.
(§3) Binding parameters were calculated using BiaEvaluation Software. The curve fitting methods were based on Langmuir equations. The input data for calculations were the molar mass of the analyte FVIII (rVIII-SingleChain) of 170 kDa, other parameters like max. RU and slopes were automatically extracted out of the fitted association and dissociation curves. The outputs of BiaEvaluation Software are the association rate constants and the dissociation rate constants, from which the affinity constants were calculated.

In test [2] the target is T1, rVIII-SingleChain (recombinant single …). In words: SPR (Biacore T200), D′D3-FP captured by anti-albumin antibody, rVIII-SingleChain as analyte, single cycle kinetics, 25 C; D′D3-FP dimer preparation; rVIII-SingleChain as analyte. As for the experimental part:
as §1, §2, §3

The target is the same in test [3]. In words: SPR (Biacore T200), reference: D′D3-FP monomer. As for the experimental part:
as §1, §2, §3

The target is the same in test [4]. In words: SPR (Biacore T200), D′D3-FP captured by anti-albumin antibody, rVIII-SingleChain as analyte, single cycle kinetics, 25 C; D′D3-FP monomer preparation; rVIII-SingleChain as analyte. The protocol:
as §1, §2, §3

B1: D′D3-FP dimer (D′D3 albumin fusion protein, dimeric) (other)
chain: SLSCRPPMVKLVCPADNLRAEGLECTKTCQNYDLECMSMGCVSGCLCPPGMVRHENRCVALERCPCFHQGKEYAPGETVKIGCNTCVCRDRKWNCTDHVCDATCSTIGMAHYLTFDGLKYLFPGECQYVLVQDYCGSNPGTFRILVGNKGCSHPSVKCKKRVTILVEGGEIELFDGEVNVKRPMKDETHFEVVESGRYIILLLGKALSVVWDRHLSISVVLKQTYQEKVCGLCGNFDGIQNNDLTSSNLQVEEDPVDFGNSWKVSSQCADTRKVPLDSSPATCHNNIMKQTMVDSSCRILTSDVFQDCNKLVDPEPYLDVCIYDTCSCESIGDCACFCDTIAAYAHVCAQHGKVVTWRTATLCPQSCEERNLRENGYECEWRYNSCAPACQVTCQHPEPLACPVQCVEGCHAHCPPGKILDELLQTCVDPEDCPVCEVAGRRFASGKKVTLNPSDPEHCQICHCDVVNLTCEACQEPGGSSGGSGGSGGSGGSGGSGGSGGSGGSGGSGS[about 600 residues cut from this listing]
notes: Covalently linked (disulfide) dimer of the mature D′D3-FP chain, made in CHO cells and separated from the monomer by size exclusion chromatography; N-glycosylated; also called dimeric D′D3-FP; VWF fragment dimer
Broadly, the koff is the first-order rate constant of dissociation. One may read the kon as the rate constant with which the complex forms. Broadly, the Kd is the concentration at which binding is half-saturated. With B1, in test [1], the koff came to 0.00137 s⁻¹ and the kon is 2.33e+07 M⁻¹ s⁻¹. Moreover, the Kd in test [2] came out at 0.059 nM. For the same molecule, the “fold slower dissociation rate constant than to the monomer” value in test [3] was found to be 3 fold.

B2: D′D3-FP monomer (D′D3 albumin fusion protein, monomeric) (other)
chain: SLSCRPPMVKLVCPADNLRAEGLECTKTCQNYDLECMSMGCVSGCLCPPGMVRHENRCVALERCPCFHQGKEYAPGETVKIGCNTCVCRDRKWNCTDHVCDATCSTIGMAHYLTFDGLKYLFPGECQYVLVQDYCGSNPGTFRILVGNKGCSHPSVKCKKRVTILVEGGEIELFDGEVNVKRPMKDETHFEVVESGRYIILLLGKALSVVWDRHLSISVVLKQTYQEKVCGLCGNFDGIQNNDLTSSNLQVEEDPVDFGNSWKVSSQCADTRKVPLDSSPATCHNNIMKQTMVDSSCRILTSDVFQDCNKLVDPEPYLDVCIYDTCSCESIGDCACFCDTIAAYAHVCAQHGKVVTWRTATLCPQSCEERNLRENGYECEWRYNSCAPACQVTCQHPEPLACPVQCVEGCHAHCPPGKILDELLQTCVDPEDCPVCEVAGRRFASGKKVTLNPSDPEHCQICHCDVVNLTCEACQEPGGSSGGSGGSGGSGGSGGSGGSGGSGGSGGSGS[about 600 residues cut from this listing]
notes: Monomer fraction of D′D3-FP from size exclusion chromatography; also called monomeric D′D3-FP; VWF fragment monomer
With B2, in test [1], the koff is 0.00396 s⁻¹ and the kon was found to be 4.41e+07 M⁻¹ s⁻¹. For the same molecule, the Kd in test [4] turned out to be 0.0899 nM.
